Results taken from ChEMBL document CHEMBL4888484, “Replenishing the malaria drug discovery pipeline: Screening and hit evaluation of the MMV Hit Generation Library 1 (HGL1) against asexual blood stage Plasmodium falciparum ,using a nano luciferase reporter read-out” (2022).
The whole screen tested about 150,000 compounds, of which about 540 (0.36%) showed an effect of 50% or more. The list shows a part of the results.

The molecules below were run on Plasmodium falciparum (assay: Primary screen in NF54 nanoGlo assay, in single point, at 2uM, 72h; a lower Z score goes with more inhibition). Conditions: timepoint 72 hour.
Assay type: functional, Erythrocyte

SMILES | % Inhibition | Z score
O=C(NC1CC1)C1Cc2cc(C(F)(F)F)ccc2N2CCN(c3ccccc3F)CC12 (centres undefined) | -19% | 2.05
Cn1cc(NC(=O)N(CCO)CC2CC2)ccc1=O | 1% | -0.12
O=c1c2ncn(COCCO)c2nc2n1CN(C1CCCC1)CN2 | 7% | -0.91
CCN(C(=O)c1scc(C)c1Cl)[C@@H](C)CS(C)(=O)=O | 4% | -0.6
CC(C)c1ncc(CN(C)Cc2nncn2C)cn1 | -2% | 0.39
CC(C)(C)n1nccc1NC(=O)NC1CC2CCC(C1)S2(=O)=O (centres undefined) | 30% | -3.29
CCCNS(=O)(=O)c1cc(-c2nc(C)c(C(=O)N3CCCCC3)s2)n(C)c1 | -3% | 0.32
C[C@H](NC(=O)N1CCN(c2nccs2)CC1)c1cccnc1 | -9% | 1.61
Cc1cc(=O)[nH]c(NCc2ccc3c(c2)OCO3)n1 | 20% | -3.54
COCCc1noc(-c2[nH]c3ccc(C)cc3c2C)n1 | 4% | -0.79
COc1ccc(CCCNC(=O)c2ccc(CN3CCOCC3)cc2)cc1OC | -12% | 1.64
CC[C@@]1(C)CC(c2csc(N)n2)CCO1 (some centres undefined) | -4% | 0.46
CCO[C@@H](C)c1nc(C)c(C(=O)N(C)c2ccc(N(C)C)cc2)s1 | -5% | 0.71
CC(=O)NC1CCN(c2nc(C3CCCC3)nc3c2CCOCC3)CC1 | -4% | 0.51
Cc1ccccc1-c1cn2c(n1)COCC2 | -4% | 0.68
Cc1nc[nH]c1-c1nccn1Cc1ccc2c(c1)CCCO2 | -6% | 1.22
N#Cc1c(NC(=O)CCN2CCC(O)CC2)sc2c1CCCCC2 | -6% | 0.95
COc1ccc(Cl)cc1NC(=O)c1sc2ncnc(N(C)c3ccccc3)c2c1C | 1% | -0.22
NC(=O)CC1CCN(C(=O)N(c2ccccc2)c2ccccc2)CC1 | -7% | 0.81
CC(=O)CC(=O)Nc1ccc(C)cc1Br | -5% | 0.74
CCC(CO)(CO)NC(=O)c1cc(F)c(C)cc1F | -3% | 0.38
c1ccc2oc(NCc3noc(C4CC4)n3)nc2c1 | -8% | 0.95

SMILES | % Inhibition | Z score
CN1c2ccccc2C(=O)N(c2ccccc2Cl)[C@H]1c1cscn1 | 9% | -1.16
OC1CCCN(CC(O)COc2ccc3ccccc3c2)C1 (centres undefined) | 0% | 0.04
CN1CC[C@@H](C(=O)NC(C)(C)COc2ncccc2C(F)(F)F)S1(=O)=O | 5% | -0.96
NCc1cccc(NC(=O)N2C[C@H]3CCC[C@@H](C3)C2)c1 | -13% | 2.03
CCNC(=O)c1cnn(-c2cc(-c3nc(CC)no3)ccn2)c1C | -18% | 2.83
CCN(CC)CCNC(=O)c1cccc(C)c1O | 4% | -0.48
Cc1cnc(NC(=O)C2(S(C)(=O)=O)CCOCC2)s1 | -7% | 1.24
Cc1cc(C(=O)N2CC[C@@H]3OCc4cccc(c4)Oc4cncc(c4)C(=O)NCCCC(=O)N[C@H]3C2)cc(C)n1 | -14% | 2.59
CC(C)Nc1cc(-c2ccc(C(=O)N3CC[C@@](O)(CO)C3)cc2)nc(N)n1 | -7% | 1.11
O=C(NCCCc1ccccc1)[C@@H]1CCCN1C(=O)Nc1ccc2c(c1)OCCO2 | 0% | -0.03
Cc1ccnc(C(C)(C)C(=O)NC[C@H]2CC(=O)N(C)[C@@H]2c2cnn(C)c2C)c1 | -2% | 0.33
Cc1cccc(OCc2cncc(-c3cccc(C)c3C)c2)c1C | -10% | 1.59
COCCCNC(=O)[C@@H]1CCCCC(=O)N1Cc1ccccc1 | -2% | 0.2
O=C(Cn1ncc(=O)c2ccccc21)Nc1ccncc1 | -8% | 1.42
COCc1ccc(C(=O)N2CCc3[nH]cnc3[C@H]2c2ccncc2)s1 | -6% | 0.55
Cc1cccc(-c2n[nH]cc2-c2nc([C@H]3CCOC3)no2)c1 | -5% | 0.95
O=C(Cc1ccsc1)NCc1noc([C@@H]2CCCO2)n1 | -13% | 2.66
O=S(=O)(NC[C@H]1CCCNC1)c1c(Cl)cccc1C(F)(F)F | -5% | 0.71
Cc1cc(CO)cc(C)c1CNc1ncnc2c1CCC2 | -5% | 0.85
O=C(Cn1c(=O)ccc2cc(S(=O)(=O)N3CCCC3)ccc21)N1CCN(c2ccc(F)cc2)CC1 | -5% | 0.69
O=C(CCc1cccnc1)NC(c1cccs1)[C@H]1C[C@@H](O)C1 (some centres undefined) | -16% | 2.29
CCCCn1cc(-c2ccc3ccccc3n2)c(=S)c2ccccc21 | 1% | -0.11

SMILES | % Inhibition | Z score
COCCOCc1nc(C2CC2)nn1-c1cc(C)ccc1C | -3% | 0.42
CC(C)CNC(=O)c1[nH]cnc1C(=O)N[C@H]1CCCCNC1=O | 14% | -1.63
CCOc1cc(Cl)c(CN2C[C@@H]3CN(C)C[C@]3(C(=O)O)C2)cc1OCC | -9% | 1.24
CCN(C(=O)[C@@H]1CCCO1)c1ccccc1C | -15% | 2.88
CCOc1ccc(S(=O)(=O)N2CC(F)(F)C[C@H]2CN2CCc3ccccc3C2)cc1 | 0% | 0.02
CN(CC1CCCCC1O)C(=O)NCCc1ccsc1 (centres undefined) | -17% | 2.56
CC(C)Oc1ncccc1C(=O)N1CC(=O)N(CC2CC2)C1 | -17% | 1.55
C[C@H](Oc1ccccc1Br)C(=O)N(CCC#N)C1CC1 | -1% | 0.15
Cc1c(CN2CC[C@H](CO)[C@H](NC(=O)c3ccccc3)C2)cnn1C | -6% | 0.78
CCS(=O)(=O)Nc1cc(-c2nnc(C(C)C)o2)sc1C | -10% | 1.58
Cc1nn(C)c(C)c1CC(=O)N(Cc1ccccn1)c1ccncc1 | -8% | 1.19
N#Cc1cnc(N2CCNC(=O)C2)c(Cl)c1 | -13% | 1.62
C[C@@H](CC1CC1)Nc1ccc2oc(CO)cc2c1 | 3% | -0.36
C[C@H]1Cc2cc(S(=O)(=O)N(C)CC#N)cc(Cl)c2O1 | -7% | 1.19
Fc1cccc(Cl)c1CN1CC(c2nc(C3CC3)no2)C1 | 4% | -0.75
CN(C)c1cc(CNCc2ccc3c(c2)CCO3)ccn1 | -12% | 1.62
Cc1[nH]c2ncnc(N[C@@H](C)c3cccnc3)c2c1C | 0% | -0.04
Cc1cc2c(N3CCN(c4ccc(C5CC5)nn4)CC3)nccn2n1 | 10% | -1.27
O=C(NCCC1=CCCCC1)c1nnc(-c2ccc3c(c2)OCO3)o1 | -9% | 1.65
COc1ccc([C@@H]2CCC(=O)N2CCN2CCOCC2)cc1 | -3% | 0.42
Cc1nccn1CCN(C)CCc1ccccn1 | -5% | 0.84
Cc1ncn(CC2CCN(c3nc4ccc(F)cc4o3)CC2)c(=O)c1C | -12% | 1.69

SMILES | % Inhibition | Z score
COc1ccc(-c2n[nH]cc2CN(C)[C@H]2CCc3nn(C)c(=O)n3CC2)cc1OC | 10% | -1.8
CCCCCNC(=O)N1CCN(C(C)(C)C(N)=O)CC1 | -6% | 1.06
C[C@@H](C#N)N1CCN(CCN(C)Cc2ccccc2)CC1 | -12% | 1.48
O=C(Nc1ccccc1)Nc1nnc[nH]1 | 39% | -5.57
CCOc1ccccc1[C@H]1N(c2ccc(OC)cc2)C(=O)[C@@H]2CCCN21 | -12% | 1.54
O=S(=O)(Nc1cccc(C(F)(F)F)n1)c1cccnc1 | -2% | 0.22
CCN(CC(=O)c1ccco1)C1CCCCC1 | 16% | -2.17
O=C(NCCCC(=O)N1Cc2ccccc2C1)Nc1nncs1 | -19% | 1.75
Cc1cc(C(=O)NCc2ccnc(-c3ccsc3)c2)n(C)n1 | -3% | 0.43
CC(=O)N1CCC[C@H](C(=O)N2CCN(c3cnccn3)CC2)C1 | -5% | 0.86
FC(F)n1ccnc1CNC1(c2cccc(C(F)(F)F)c2)CCC1 | 4% | -0.67
O=C(O)c1ccc(CNCc2csc(COc3ccc(Cl)cc3)n2)cc1 | 4% | -0.54
CNc1nc2c(c(C(=O)N3CCCC3)n1)CN(c1ncccc1Cl)CC2 | -21% | 2.06
CCc1cnc(C)nc1N[C@H]1COC[C@@H]1N1CCOCC1 | 9% | -1.76
COC1CC(NC(=O)N2CCC3(c4ccccc4)C(C2)C3(F)F)C12CCC2 (centres undefined) | -2% | 0.32
C[C@H]1C(=O)N2C[C@@H](N(C)C)C[C@H]2CN1Cc1ccc(Br)o1 | -3% | 0.49
CC(C)(C)C(=O)Nc1sc2c(c1C(=O)Nc1cccc3ccccc13)CCCC2 | 12% | -1.93
O=C(NC[C@@H](c1ccc(C(F)(F)F)cc1)N1CCOCC1)C1CCC1 | -6% | 0.64
O=C(N[C@H](CO)Cc1ccccc1)c1cc(O)ccc1C(F)(F)F | 7% | -0.84
O=C1NCCN(C(=O)c2csc(-c3cccs3)n2)[C@H]1Cc1c[nH]cn1 | -14% | 1.77
C[C@@H](C(=O)N1CCc2ccccc21)N1CCn2ccnc2C1 | -10% | 2.17
